The nature of the test: qHTS Assay for Lipid Storage Modulators (AID 1519). The following applies: Drosophila S3 cells, BODIPY lipid droplet/cell ratio, laser cytometry, cells loaded with oleic acid. The essentials:
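Cells seeded at 5,000 per well were treated with compounds over a concentration series and loaded with oleic acid (400 uM, as added). Lipid droplet fluorescence (488 nm excitation, 500-530 nm channel) was read by laser-scanning cytometry and normalized to 20 uM Triacsin C.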
In general terms: Quantitative high-throughput screening tests each substance at several concentrations.

[1] abbreviates: measured here: cell count channel max response.
The mark [2] stands for this setting: measured here: lipid (BODIPY) channel AC50.
The mark [3] stands for this setting: measured here: lipid channel max response.
[4] abbreviates: measured here: cell number channel AC50.

This is one part of the list. These are further read-outs of the screen, such as a control signal, another cell line or another target. No call is given for them. Most of these compounds were active or inconclusive in the main read-out, so they are no random draw. The note in brackets gives the kind of curve behind each potency; many fits are weak.

One may read the AC50 as the concentration at which the activity in the assay is half-maximal.
Tags tell the direction and shape of the fitted curve.

`COc1ncc2nc(C)c(=O)n(Cc3ccc(F)cc3)c2n1`: the max response came out at 21.9% under setting [1] and 23.5% under setting [3]. For the same compound, the AC50 under setting [2] is 1 µM [rising, full curve, poor fit].
As for `COc1cccc(Nc2ncc3ncc(=O)n(Cc4ccc(F)cc4)c3n2)c1`, the max response turned out to be 5.57% under setting [1] and 2.76% under setting [3]. In addition, under setting [2], the AC50 is 0.0708 µM [rising, full curve].
As to `COCCn1c(=O)c(-c2cccs2)nc2cnc(Nc3ccccc3)nc21`, the max response was 53.9% under setting [1] and -21% under setting [3]. Under setting [4], the AC50 was 3.55 µM [rising, partial curve].
On to `COc1ccc(Oc2ncc3nc(-c4ccc(F)cc4)c(=O)n(CCC#N)c3n2)cc1`, for which the max response runs as follows: under setting [1], 10.2%; under setting [3], 15%. In addition, the AC50 under setting [2] is 2.82 µM [rising, partial curve].
`O=C(c1ccncc1)N1CCC2(CCCN(c3cccc(-c4ccccc4)c3)C2)CC1`: the max response under setting [1] amounted to 19.5% and the max response under setting [3] stood at 14.9%. Besides, the AC50 under setting [2] is 0.355 µM [rising, full curve, poor fit].
On to `COc1ccc(Oc2ncc3nc(-c4ccc(Cl)cc4)c(=O)n(CCC#N)c3n2)cc1`, for which the max response turned out to be 3.47% under setting [1] and 7.65% under setting [3]. Besides, the AC50 under setting [2] was 0.316 µM [rising, full curve, poor fit].
`Cc1noc(C)c1-c1ccc2ncnc(N3CCOCC3)c2c1`: the max response stood at 23.1% under setting [1] and 19.8% under setting [3]. Moreover, the AC50 under setting [2] is 2.82 µM [rising, single point].
Take `COc1ccc(-n2c(=O)c(CCc3ccccc3)nc3cnc(N4CCOCC4)nc32)cc1`: the max response runs as follows: under setting [1], 29.4%; under setting [3], 36.3%. For the same compound, the AC50 under setting [2] was 8.91 µM [rising, partial curve].
Regarding `FC(F)(F)c1ccccc1-c1nc(Nc2ccncc2)c2ccccc2n1`, the max response by setting is: under setting [1], -16.6%; under setting [3], -31.7%. Besides, the AC50 under setting [2] was 25.1 µM [falling, single point].
Take `N#Cc1cccc(-c2nc(Nc3ccccc3)c3ccccc3n2)c1`: the max response reads like this: under setting [1], 6.01%; under setting [3], 15.2%. Also, under setting [2], the AC50 was 3.55 µM [rising, partial curve, poor fit].
For the compound `COc1ccc(-n2c(=O)cnc3cnc(N4CCNCC4)nc32)cc1`, the max response is 17.7% under setting [1] and 30.6% under setting [3]. Moreover, the AC50 under setting [2] is 3.98 µM [rising, full curve, poor fit].
Turning to `O=S(=O)(c1ccccc1)N1CCC2(CCCN(c3ccccc3)C2)CC1`, the max response reads like this: under setting [1], 3.79%; under setting [3], 6.58%. Further, the AC50 under setting [2] was 0.0141 µM [rising, full curve, poor fit].
As for `Nc1ncn(C2OC(CO)C(O)C2O)c(=O)n1` (centres undefined), the max response turned out to be 14.5% under setting [1] and 19.7% under setting [3]. Also, under setting [4], the AC50 was 3.16 µM [rising, partial curve, poor fit].
Consider `Cc1nc2cnc(Nc3ccccc3)nc2n(CCc2ccccc2)c1=O`, for which the max response reads like this: under setting [1], 23%; under setting [3], 30.6%. The AC50 under setting [2] is 3.98 µM [rising, full curve].
Take `CCNc1ncc2nc(-c3cccs3)c(=O)n(-c3ccccc3)c2n1`: the max response under setting [1] is -16.2% and the max response under setting [3] was -38.4%. Also, under setting [2], the AC50 was 39.8 µM [falling, single point].
For the compound `COc1cc2c(cc1OC)-c1c(oc3cc(O)cc(O)c3c1=O)CO2`, the max response is, setting by setting: under setting [1], -28%; under setting [3], -57.7%. The AC50 under setting [2] was 35.5 µM [falling, single point].
As for `COCCn1c(=O)c(-c2ccc(F)cc2)nc2cnc(Oc3cccc(Cl)c3)nc21`, the max response was 18.9% under setting [1] and 18.2% under setting [3]. Moreover, the concentration at half-maximal activity (AC50) under setting [2] is 0.0316 µM [rising, full curve, poor fit].
On to `CN(C)c1ccc(-c2nc(N3CCNCC3)c3ccccc3n2)cc1`, for which the max response stood at 21.5% under setting [1] and 31.5% under setting [3]. The AC50 under setting [2] is 6.31 µM [rising, partial curve].
As to `O=C(Oc1ccccc1)N1CCC[C@@]2(CCN(c3ccccn3)C2)C1`, the max response was determined as 24.5% under setting [1] and 33.1% under setting [3]. Further, the AC50 under setting [2] is 2.82 µM [rising, full curve].
In the case of `CN(C)c1ncnc2ccc(-c3ccc4c(c3)OCO4)cc12`, the max response under setting [1] is 23.1% and the max response under setting [3] came to 37%. For the same compound, the AC50 under setting [2] is 0.0178 µM [rising, full curve].
As to `CN(C)c1ccc(O)c2c1C[C@@H]1C[C@H]3C(N(C)C)C(=O)C(C(N)=O)=C(O)[C@@]3(O)C(=O)C1=C2O` (some centres undefined), the max response came to 17.2% under setting [1] and 42.5% under setting [3]. Also, the AC50 under setting [2] is 25.1 µM [rising, single point].
For the compound `COc1cccc(Cn2c(=O)c(-c3cccc(C#N)c3)nc3cnc(OC)nc32)c1`, the max response was determined as 20.8% under setting [1] and 26% under setting [3]. Besides, the AC50 under setting [2] is 0.1 µM [rising, full curve].
`O=C(c1cccc(F)c1)N1CCC2(CCCN(c3ccc(-c4ccccc4)cc3)C2)CC1`: the max response by setting is: under setting [1], 32.9%; under setting [3], -50%. In addition, under setting [4], the AC50 was 3.16 µM [rising, partial curve].
Consider `NC(N)=Nc1nc(CSCC/C(N)=N\S(N)(=O)=O)cs1`, for which the max response is, setting by setting: under setting [1], 22.4%; under setting [3], 34%. The AC50 under setting [2] is 39.8 µM [rising, single point].
Consider `O=c1c(O)c(-c2ccc(O)cc2)oc2ccc(O)cc12`, for which the max response under setting [1] was -23.5% and the max response under setting [3] is -26.4%. Besides, under setting [4], the AC50 is 2.51 µM [rising, full curve, poor fit].
In the case of `O=c1c(CCc2ccccc2)nc2cncnc2n1-c1ccccc1`, the max response was determined as 10.6% under setting [1] and 20.9% under setting [3]. Also, the AC50 under setting [2] is 0.0501 µM [rising, full curve, poor fit].
In the case of `CC(C)C[C@H](NC(=O)[C@H](O)[C@H](N)Cc1ccccc1)C(=O)O`, the max response was determined as 18% under setting [1] and 10.9% under setting [3]. For the same compound, the AC50 under setting [2] is 1.26 µM [falling, full curve, poor fit].
For `Nc1nc2c(ncn2C2OC(COC(=O)c3ccccc3)C(OC(=O)c3ccccc3)C2OC(=O)c2ccccc2)c(=O)[nH]1` (centres undefined), the max response by setting is: under setting [1], -19.1%; under setting [3], -41.1%. Besides, the AC50 under setting [2] is 39.8 µM [falling, single point].
